# Measured values as given in PubChem BioAssay AID588855 (National Center for Advancing Translational Sciences (NCATS), 2011).
# Screen size: about 410,000 compounds; about 5,000 (1.2%) were called active. Inconclusive results, whose numbers are uncertain, are shown with a selection of clear calls. Calls follow the shape of the dose curve; as a rule, active = well fitted inhibition curve with a large enough effect; inconclusive = small, poorly fitted or top-dose-only effect; inactive = no such curve, though single readings can be large or run the other way. Where the call is inconclusive, the potency comes from a doubtful curve fit.
# Test: qHTS for Inhibitors of TGF-b; also: nearly all actives have a fitted effect of over 65% in size
# Settings: HepG2 CAGA-GFP TGF-b/SMAD3 reporter, GFP fluorescence, 18 h, TGF-beta stimulated, 500 pg/mL final; series mostly up to 46.1 µM
# Procedure, shortened: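 TGF-beta reporter screen: HEPG2 CAGA-GFP, 1% FBS, 500 pg/mL TGF-beta final, 18 h; per-cell GFP summed per well; curves fitted and categorized by class.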
# Potency is read from the fitted curve at half-maximal effect; tags tell the direction and shape of the fitted curve.
row,SMILES,Potency
1,CCCOc1cccc(C(=O)NCCCNC(=O)c2cccnc2)c1,"inconclusive: 35.5 µM [inhibitor, single point]"
2,O=[N+]([O-])c1ccccc1/C=C/C=N/n1c(-c2ccc(Cl)cc2)n[nH]c1=S,inactive
3,FC(F)(F)c1cccc(NC(=S)NCc2ccccc2)c1,inactive
4,COc1ccccc1N1CCN(C(=O)CCNC(=O)c2ccco2)CC1,inactive
5,COc1ccc(-c2csc(N3C(=O)C4C5c6ccccc6C(c6ccccc65)C4C3=O)n2)cc1 (stereo not given),inactive
6,CN(CCOc1ccc(Cl)cc1)C(=O)c1cc(-c2ccco2)nc2ccccc12,"inconclusive: 22.4 µM [inhibitor, partial curve, poor fit]"
7,Cc1ccc(C(=O)OC(C)C(=O)N(C)C2CCCCC2)cc1S(=O)(=O)N1CCCCC1 (stereo not given),"inconclusive: 20 µM [inhibitor, single point]"
8,CCCCC(=O)Nc1cccc(-c2nc3ccccc3s2)c1,"inconclusive: 10 µM [inhibitor, partial curve]"
9,CC(C)OC(=O)CSc1nnc(COc2ccc([N+](=O)[O-])cc2)n1C,inactive
10,CN(c1ccc(Cl)cc1)S(=O)(=O)c1nnc(NC(=O)c2ccco2)s1,"inconclusive: 22.4 µM [inhibitor, single point]"
11,CC1=NNC(=O)/C1=C\c1cn(-c2ccccc2)nc1-c1cccs1,active: 5.62 µM
12,CC(C)NC(=S)NC(=O)/C=C/c1ccc(F)cc1,"inconclusive: 5.62 µM [inhibitor, single point]"
13,Cc1ccc(C)c(S(=O)(=O)Nc2ccccc2C(=O)Nc2ccccc2N2CCOCC2)c1,inactive
14,CCc1ccc(NC(=O)c2cc(CN3CCOCC3)on2)cc1,inactive
15,O=C(CCn1c(=O)c2ccccc2n(Cc2ccc(Cl)cc2)c1=O)NCc1ccc2c(c1)OCO2,"inconclusive: 14.1 µM [inhibitor, single point]"
16,Cc1ccc(SCC(=O)Nc2cc(S(=O)(=O)N3CCCCC3)ccc2C)cc1,inactive
17,Cc1ccc(-n2nnnc2SCCNS(=O)(=O)c2ccccc2)cc1C,"inconclusive: 35.5 µM [inhibitor, single point]"
18,CCOc1ccc(-n2c(SCC(=O)N3CCCc4ccccc43)nc3c([nH]c4ccccc43)c2=O)cc1,inactive
19,C/C(=N\NC(=O)Cc1c(C)[nH][nH]c1=O)c1cccc(Br)c1,"inconclusive: 1.58 µM [inhibitor, partial curve, poor fit]"
20,CCn1c(C(=O)NCc2ccccc2)cc2sc(Cl)cc21,"inconclusive: 35.5 µM [inhibitor, partial curve, poor fit]"
21,Fc1ccc(CSc2ncnc3ccccc23)cc1,"inconclusive: 35.5 µM [inhibitor, single point]"
22,CCCNC(=O)c1ccccc1NC(=O)c1ccc(CSc2ccccc2)cc1,inactive
23,COc1cccc(CNC(=O)c2ccc(CN3CC(=O)N4CCCCC4C3=O)cc2)c1 (stereo not given),inactive
24,Cc1ccc(CNC(=O)c2ccc(CSCc3c(F)cccc3Cl)o2)cc1,active: 15.8 µM

row,SMILES,Potency
1,CCC(C)(c1nnnn1-c1c(C)cccc1C)N(N=O)c1ccccc1Cl (stereo not given),"inconclusive: 6.31 µM [inhibitor, single point]"
2,COc1ccccc1NC(=O)N1CCOc2ccccc21,inactive
3,CC1(C)CC(=O)c2cc(C(=O)NNc3ccccc3)c(=O)n(-c3ccccc3)c2C1,"inconclusive: 1.26 µM [inhibitor, partial curve]"
4,CCOC(=O)n1c(=O)n(Cc2ccc(Cl)cc2Cl)c2ccccc21,"inconclusive: 1 µM [inhibitor, full curve, poor fit]"
5,CCOC(=O)c1nn(-c2ccccc2F)c2nc(Nc3ccccc3)cc(=O)n12,"inconclusive: 3.16 µM [inhibitor, single point]"
6,COc1ccnc(CSC(N)=Nc2ccccc2OC)c1,"inconclusive: 35.5 µM [inhibitor, single point]"
7,Cc1cccc(C2c3[nH]c4ccccc4c3CCN2C(=O)c2cc(CC(C)C)[nH]c(=O)n2)n1 (stereo not given),"inconclusive: 35.5 µM [inhibitor, single point]"
8,O=[N+]([O-])c1cc(S(=O)(=O)Oc2ccccc2)ccc1Cl,"inconclusive: 6.31 µM [inhibitor, single point]"
9,CC(C)CCn1c(=O)c2sccc2n2c(CCCC(=O)Nc3ccc(F)c(Cl)c3)nnc12,"inconclusive: 20 µM [inhibitor, partial curve, poor fit]"
10,Cc1ccccc1NS(=O)(=O)c1ccc(NC(=O)CSCc2ccc(Br)cc2)cc1,"inconclusive: 25.1 µM [inhibitor, single point]"
11,O=C(NCc1ccc(F)cc1Cl)c1ccc(CSCc2ccccc2Cl)o1,active: 12.6 µM
12,COc1ccc(/C=C/C(=O)NC(=S)NNC(=O)c2ccco2)cc1OC,inactive
13,COc1ccc(-c2cc(C3C4C=CCCC4(C)C(=O)N3Cc3ccccc3)ccc2F)cc1OC (stereo not given),"inconclusive: 22.4 µM [inhibitor, single point]"
14,COc1ccc(C[C@H]2CN3C(=NC[C@@H]3Cc3ccc(O)cc3)N2C[C@H](C)NC(=O)c2ccc(C)c(Br)c2)cc1,active: 22.4 µM
15,CCCCN(C(=O)c1ccc(C)c(S(=O)(=O)N2CCOCC2)c1)c1c(N)n(CCCC)c(=O)[nH]c1=O,"inconclusive: 35.5 µM [inhibitor, single point]"
16,C=CCOC(=O)C1=C(C)NC(=S)NC1/C=C/c1ccccc1 (stereo not given),"inconclusive: 11.2 µM [inhibitor, partial curve, poor fit]"
17,Cc1oc2c(c1C(=O)NCc1cccnc1)C(=O)c1ccccc1C2=O,active: 0.282 µM
18,CC1C=CC=CC=CC=CC=CC=CC=CC(OC2OC(C)C(O)C(N)C2O)CC2OC(O)(CC(O)CC(O)C(O)CCC(O)CC(O)CC(=O)OC(C)C(C)C1O)CC(O)C2C(=O)O (stereo not given),"inconclusive: 11.2 µM [inhibitor, partial curve, poor fit]"
19,CCN(CCNS(=O)(=O)c1ccc2[nH]c(=O)sc2c1)c1ccccc1,"inconclusive: 35.5 µM [inhibitor, single point]"
20,CCCNC(=O)c1cc(C2CCCN(C(=O)c3ccc(NC(C)=O)cc3)C2)on1 (stereo not given),inactive
21,COc1ccc2[nH]c(=O)c(CN(CC3CCCO3)C(=S)Nc3ccccc3)cc2c1 (stereo not given),"inconclusive: 1 µM [inhibitor, full curve, poor fit]"
22,COc1ccccc1CNS(=O)(=O)c1ccc(-n2cnnn2)c(OC)c1,inactive
23,CCOc1ccc(CN(C)CC(O)COC(c2ccc(OC)cc2)c2ccc(OC)cc2)cc1 (stereo not given),"inconclusive: 35.5 µM [inhibitor, single point]"
24,CC(OC(=O)c1cccs1)C(=O)Nc1nc(-c2ccccc2)cs1 (stereo not given),"inconclusive: 35.5 µM [inhibitor, single point]"

row,SMILES,Potency
1,Cc1ccc(S(=O)(=O)N(C)C[C@@H]2Oc3ccc(NC(=O)Cn4cnnn4)cc3C(=O)N([C@@H](C)CO)C[C@H]2C)cc1,inactive
2,Cc1cc(C)c(C)c(S(=O)(=O)N2CCC(C(=O)NCC(c3ccccc3)N(C)C)CC2)c1C (stereo not given),"inconclusive: 11.2 µM [inhibitor, partial curve, poor fit]"
3,COc1ccc2oc(C(=O)OCC(=O)NCCc3ccc(S(N)(=O)=O)cc3)c(C)c2c1,inactive
4,CC(C)CC(OC(=O)c1nsc(Cl)c1Cl)C(=O)NC1CCCC1 (stereo not given),inactive
5,COc1ccc(OC)c(/C=C2\C=Cc3ccccc32)c1,"inconclusive: 15.8 µM [inhibitor, single point]"
6,Cc1cc(-n2c(C)cc(C(=O)COc3ccc([N+](=O)[O-])cc3)c2C)no1,inactive
7,Cc1cc(=O)oc2cc(NC(=O)Cc3ccccc3)ccc12,inactive
8,O=C(Nc1nc2ccccc2[nH]1)c1cccc(Cl)c1,inactive
9,Cn1nnnc1Sc1ncnc2scc(-c3ccccc3C(F)(F)F)c12,"inconclusive: 11.2 µM [inhibitor, partial curve, poor fit]"
10,COc1ccc(-c2cc(NC(C)=O)c3ncc(-c4cccc(C(C)=O)c4)n3c2)cc1OC,inactive
11,Oc1ccc(Cl)cc1CNc1cccc2cccnc12,"inconclusive: 35.5 µM [inhibitor, single point]"
12,COc1cc(C(CC(=O)N2CCCC2)c2c(OC)cc(OC)c3ccc(=O)oc23)cc(OC)c1OC (stereo not given),inactive
13,Cn1cnc([N+](=O)[O-])c1Sc1ccncn1,"inconclusive: 3.98 µM [inhibitor, single point]"
14,CC(C)NC(=O)Cn1c(SCC(=O)N2CCCCCC2)nc2ccccc21,inactive
15,CCn1c(=O)c(C(=O)NNC(=O)c2ccccc2Br)c(O)c2ccccc21,"inconclusive: 0.447 µM [inhibitor, full curve]"
16,COc1ccc(C(=O)NCc2ccccc2OC)cc1,"inconclusive: 3.16 µM [inhibitor, partial curve, poor fit]"
17,CCN(CC)CCNC(=O)c1ccc(NC(=O)c2ccc(-n3cncn3)c([N+](=O)[O-])c2)cc1,"inconclusive: 0.631 µM [inhibitor, partial curve, poor fit]"
18,CCOC(=O)C1=C(CN(C)Cc2ccccc2)NC(=O)NC1c1ccc(OC(C)C)cc1 (stereo not given),"inconclusive: 22.4 µM [inhibitor, single point]"
19,O=C(COc1cccnc1[N+](=O)[O-])Nc1cccc2ccccc12,inactive
20,CCN(CC)c1ccc(C(=O)N/N=C(\C)c2ccc(OC)c(OC)c2)cc1,inactive
21,Cc1cc(C)c2c(-n3cccc3)nn(C)c2n1,"inconclusive: 0.794 µM [inhibitor, full curve, poor fit]"
22,CCCNC(=O)c1cc(C2CCCN(S(=O)(=O)c3cccc4cccnc34)C2)on1 (stereo not given),inactive
